Measurements taken from PubChem BioAssay AID504845 (National Center for Advancing Translational Sciences (NCATS), 2011).
Out of some 390,000 compounds screened, about 150 (0.038%) were called active. This list was built around the results that the source calls inconclusive (neither active nor inactive); the mix of calls is not that of the screen. Calls follow the shape of the dose curve; as a rule, active = well fitted inhibition curve with a large enough effect; inconclusive = small, poorly fitted or top-dose-only effect; inactive = no such curve, though single readings can be large or run the other way. A potency beside an inconclusive call is a rough fit, not a confirmed value.

biological target: Regulator of G-protein signaling 4 (Homo sapiens) (UniProt P49798); assay: Inhibitors of Regulator of G Protein Signaling (RGS) 4: qHTS; conditions: Transcreener GDP fluorescence polarization, RGS4-accelerated GTP hydrolysis; series mostly up to 114 µM; also: nearly all actives have a fitted effect of over 75% in size
Sequence of UniProt P49798 (P49798 whole entry, looked up): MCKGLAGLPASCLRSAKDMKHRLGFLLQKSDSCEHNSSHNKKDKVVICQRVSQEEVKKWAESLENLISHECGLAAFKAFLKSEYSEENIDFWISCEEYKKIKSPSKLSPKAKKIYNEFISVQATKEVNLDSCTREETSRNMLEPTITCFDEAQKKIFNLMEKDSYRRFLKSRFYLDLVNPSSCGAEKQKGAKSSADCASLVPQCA
How it was run: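 MLSMR compounds (23 nl, pin-transferred) preincubated 10 min at room temperature with a 500nM (2x) first reagent, then RGS4 at 900nM (2x) plus Transcreener GDP mix added; fluorescence polarization (620/688 nm) read before and after 90 min at 30 °C.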
% is scaled to controls: 0 for no effect and ±100 for the full control effect; potency is read from the fitted curve at half-maximal effect; tags tell the direction and shape of the fitted curve.

| Compound | Potency | activity change, negative = inhibition |
| --- | --- | --- |
| N#Cc1ccc(/C=C/C(=O)c2ccco2)cc1 | inconclusive: 70.8 µM [inhibitor, partial curve, poor fit] | – |
| COc1ccccc1-c1cc(C(F)(F)F)nc(S(=O)(=O)CCCC(=O)N2CCCCC2C)n1 (stereo unspecified) | inconclusive: 39.8 µM [inhibitor, partial curve, poor fit] | – |
| CCc1ccc(CN(Cc2ccco2)C(=O)c2ccccc2Cl)cc1 | inactive | – |
| CCOc1ccc(/C=C/C2=CC(C)(C)NC(=S)N2)cc1 | inconclusive: 17.8 µM [inhibitor, full curve, poor fit] | – |
| COc1ccc2cc(C(=O)Nc3ccc(O)cc3)sc(=O)c2c1OC | inconclusive: 50.1 µM [inhibitor, partial curve, poor fit] | – |
| CCC(C)N(C(=O)COC(=O)/C=C/c1ccc(O)c(OC)c1)C1CCS(=O)(=O)C1 (stereo unspecified) | inconclusive: 89.1 µM [inhibitor, single point] | – |
| Cc1cc(C)c(C#N)c(SCc2nc3ccccc3c(=O)[nH]2)n1 | inconclusive: 79.4 µM [inhibitor, single point] | – |
| Cc1ccc(-c2c3c([nH]c(=S)c2C#N)CCCC3)o1 | inconclusive: 79.4 µM [inhibitor, partial curve, poor fit] | – |
| Cc1ccc(NC(=O)COc2ccc(/C=N\NC(=O)c3cccnc3)cc2)cc1C | inconclusive: 44.7 µM [inhibitor, partial curve, poor fit] | – |
| O=C(COC(=O)c1ccc(NS(=O)(=O)c2cccs2)cc1)Nc1nc2c(F)c(F)c(F)cc2s1 | inconclusive: 17.8 µM [inhibitor, full curve, poor fit] | – |
| Cc1c(NC(=O)c2cnn3c(C(F)(F)F)cc(-c4ccco4)nc23)c(=O)n(-c2ccccc2)n1C | inconclusive: 89.1 µM [inhibitor, single point] | – |
| O=C(Nc1cccc(S(=O)(=O)N2CCCCC2)c1)c1cc(=O)[nH]c2ccccc12 | inconclusive: 89.1 µM [inhibitor, single point] | – |
| CCOC(=O)C1=C(C)N=C2SC(C)C(=O)N2C1c1ccc(OC(C)=O)c(OC)c1 (stereo unspecified) | – | inactive: 4.46% [at 11.4 µM] |
| CC(Sc1nnc2ccc3ccccc3n12)C(=O)Nc1ccc(Cl)cc1 (stereo unspecified) | inactive | – |
| O=C(O)C(c1ccccc1)N1C(=O)/C(=C\c2ccc(-c3ccccc3Cl)o2)SC1=S (stereo unspecified) | inconclusive: 17.8 µM [inhibitor, full curve, poor fit] | – |
| COc1ccc(C2=Nc3ccccc3NC(c3cccs3)=N2)cc1 | inactive | – |
| Cn1c(N)c(C(=O)COC(=O)C2CCC(C(C)(C)C)CC2)c(=O)n(C)c1=O (stereo unspecified) | inactive | – |
| O=C(CC(=O)c1ccccn1)c1ccccc1 | inconclusive: 89.1 µM [inhibitor, single point] | – |
| Cc1ccc(S(=O)(=O)N(Cc2ccccc2)c2ccccc2C(=O)NCc2ccco2)cc1 | inconclusive: 44.7 µM [inhibitor, partial curve, poor fit] | – |
| CCCC(=O)NC1=C(Cl)C(=O)c2ccccc2C1=O | inactive | – |
| O=C(c1ccncc1)c1ccc(NC(=O)c2cccs2)cc1 | inactive | – |

| Compound | Potency | activity change, negative = inhibition |
| --- | --- | --- |
| Cc1ccc(N2C(=O)[C@@H]3[C@H](C2=O)C2CCCN2[C@@H]3C(=O)c2ccccc2)cc1 (stereo partly specified) | inconclusive: 89.1 µM [inhibitor, partial curve, poor fit] | – |
| Cc1nc(Nc2cnc(/C=C/c3cc(C(=O)Nc4cccc(C(F)(F)F)c4)ccc3C)cn2)cc(N2CCNCC2)n1 | inconclusive: 89.1 µM [inhibitor, partial curve, poor fit] | – |
| CN(c1ccccc1)S(=O)(=O)c1cccc(C(=O)Nc2ccc3c(c2)CCC3)c1 | inactive | – |
| COc1cccc(Cn2nnc(C(=O)NCc3ccc(F)cc3)c2N)c1 | inconclusive: 79.4 µM [inhibitor, partial curve, poor fit] | – |
| CCn1nc(C(=O)OCC(=O)NC(C)C)c2ccccc2c1=O | inconclusive: 39.8 µM [inhibitor, partial curve, poor fit] | – |
| CCOC(=O)c1[nH]c(C)c(C(=O)NCc2ccc(C)cc2)c1C | inactive | – |
| Nc1nc(Cl)nc2ccc(Br)cc12 | inconclusive: 31.6 µM [inhibitor, full curve, poor fit] | – |
| N#CC(C#N)=C(N)/C(C#N)=C/c1ccc(O)cc1 | inconclusive: 15 µM [inhibitor, single point] | – |
| Cc1ccc(S(=O)(=O)N(CC(=O)Nc2cccnc2)c2cccc([N+](=O)[O-])c2)cc1 | inactive | – |
| O=C(O)Cc1sc(Nc2ccccc2)nc1-c1ccc(Cl)cc1 | inconclusive: 79.4 µM [inhibitor, partial curve, poor fit] | – |
| Cc1ccc(S(=O)(=O)N2CCN(C(=O)c3cc(-c4ccc(Br)cc4)n[nH]3)CC2)c(C)c1 | inactive | – |
| O=C1NN=C(CSc2n[nH]c(=S)s2)CS1 | inconclusive: 50.1 µM [inhibitor, partial curve, poor fit] | – |
| CCc1cc2c(=O)c(-c3nc4ccccc4n3C)coc2c(CN2CCN(C)CC2)c1O | inactive | – |
| CN(CCCNC(=O)C1CCCN(S(=O)(=O)c2cnc[nH]2)C1)c1ccccc1 (stereo unspecified) | inactive | – |
| COc1cccc2c1cc1c(=O)n(CC(=O)N3CCN(c4cccc(C)c4C)CC3)nc(C)n12 | inconclusive: 89.1 µM [inhibitor, single point] | – |
| Cc1ccc(C(=O)/C=C/c2ccccc2)o1 | inconclusive: 79.4 µM [inhibitor, partial curve, poor fit] | – |
| CN(C)c1ccc(/C=C2/C[N+](C)(C)C/C(=C/c3ccc(N(C)C)cc3)C2=O)cc1 | inconclusive: 89.1 µM [inhibitor, partial curve, poor fit] | – |
| CCc1ccc(N2CC(C(=O)Nc3nccs3)CC2=O)cc1 (stereo unspecified) | inconclusive: 79.4 µM [inhibitor, single point] | – |
| C=CCSc1nc2ccccc2n1C(=O)/C=C/c1cc(OC)c(OC)c(OC)c1 | inconclusive: 79.4 µM [inhibitor, partial curve, poor fit] | – |
| COc1ccc(CCN2CC(C(=O)OCC(=O)N(C)Cc3ccccc3)CC2=O)cc1OC (stereo unspecified) | inconclusive: 89.1 µM [inhibitor, single point] | – |
